One experiment has as its target LC3C (Homo sapiens, UniProt Q9BXW4). The experiment can be described thus: FP assay with Cy5-labelled p62 LIR tracer (protein titration and tracer displacement). Format: binding. Conditions: two replicate columns per compound.
A further experiment deals with GABARAPL1 (Homo sapiens, UniProt Q9H0R8). The description is as above. As to conditions: two replicate columns per compound. Format: binding.
Another experiment has as its target LC3A (Homo sapiens, UniProt Q9H492). Described as above. Format: binding. As to conditions: two replicate columns per compound.
The test system of a further experiment is all LC3/GABARAPs. Put plainly: Covalent compound screening by ESI LC-MS. As to conditions: 50 µM protein, 100 µM compound, 90 min.
In the next experiment the target is GABARAP (Homo sapiens, UniProt O95166). The experiment can be described thus: FP assay with Cy5-labelled p62 LIR tracer (protein titration and tracer displacement). Format: binding. As to conditions: two replicate columns per compound.
The next experiment has as its system LC3/GABARAP. Put plainly: Chemoproteomic competition pulldown assay (affinity matrix, LC-MS/MS) in HEK293T lysate. Format: binding. As to conditions: HEK293T cell lysate. As for the experimental part: Preparation of Affinity Matrix 10O5 and 8F20: Compounds 18 and 19 (1 µM) were linked to DMSO-washed NHS-activated ( ~ […] beads) sepharose beads (1 mL) and triethylamine (20 µL) in DMSO (2 mL) on an end-over-end shaker overnight at RT in the dark. Aminoethanol (50 µL) was then added to inactivate the remaining NHS-activated carboxylic acid groups. […] Successful immobilization was controlled by LC-MS and Kaiser-test[46].
Preparation of cell lysates for affinity pulldown assays: HEK293 cells (ATCC; CRL-11268) were cultured in DMEM (PAN Biotech). All media were supplemented with 10% FBS (PAN Biotech) and cells were internally tested for Mycoplasma contamination. […] The protein amount of cell lysates was determined by Bradford assay and adjusted to a concentration of 5 mg/mL[46]. […]
LC-MSMS measurement of (competition) pulldown assays: Peptides were analyzed via LC-MS/MS on a Dionex Ultimate3000 nano HPLC coupled to an Orbitrap Fusion Lumos mass spectrometer, operated via the Thermo Scientific Xcalibur software. […]
The mass spectrometer was operated in data dependent mode, automatically switching between MS1 and MS2 spectra. […] Up to 12 peptide precursors were isolated (isolation width of 1.2 Th, maximum injection time of 75 ms, AGC value of 2e5), fragmented by HCD using 25 % […] normalized collision energy (NCE) and analyzed in the Orbitrap at a resolution of 15,000. […]

The subject of another experiment is LC3/GABARAPs. Put plainly: Temperature shift assay (TSA/DSF). Format: binding, human. As to conditions: DSF screening. On the procedure:
Temperature shift assay (TSA): Purified proteins were buffered in TSA buffer (25 mM HEPES pH 7.5, 500 mM NaCl) and were assayed in a 384-well plate (Thermo, #BC3384) with a final protein concentration of 20 μM in 10 μL final assay volume. Inhibitors were added in excess to a final concentration of 40 μM, using an ECHO 550 acoustic dispenser (Labcyte). As a fluorescent probe, SYPRO-Orange (Molecular Probes) was used at 5x final concentration. Filters for excitation and emission were set to 465 nm and 590 nm, respectively. The temperature was increased from 25 °C with 3 °C/min to a final temperature of 99 °C, while scanning, using the QuantStudio5 (Applied Biosystems). Data was analyzed using Boltzmann-equation in the Protein Thermal Shift software (Applied Biosystems). Samples were measured in technical triplicates.

The mark [1] stands for this setting: log10 concentration [M] -3.82391.
The mark [2] stands for this setting: log10 concentration [M] -4.1549.
Setting [3] is: log10 concentration [M] -4.60206.
The mark [4] stands for this setting: log10 concentration [M] -5.30103.
Where [5] appears, read: log10 concentration [M] -5.69897.
[6] abbreviates: log10 concentration [M] -6.22185.
The mark [7] stands for this setting: log10 concentration [M] -6.69897.
The mark [8] stands for this setting: log10 concentration [M] -7.30103.
Where [9] appears, read: log10 concentration [M] -7.79588.
Where [10] appears, read: log10 concentration [M] -8.08092.

“And” between values parts separate entries of the source, which are not always exact repeats. Equal entries are not always repeated.

Sequence of GABARAPL1 (Q9H0R8 whole entry): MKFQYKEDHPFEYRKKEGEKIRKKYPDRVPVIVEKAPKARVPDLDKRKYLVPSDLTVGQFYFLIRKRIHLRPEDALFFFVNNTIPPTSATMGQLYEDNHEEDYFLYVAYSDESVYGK
Sequence of LC3C (Q9BXW4 1-126): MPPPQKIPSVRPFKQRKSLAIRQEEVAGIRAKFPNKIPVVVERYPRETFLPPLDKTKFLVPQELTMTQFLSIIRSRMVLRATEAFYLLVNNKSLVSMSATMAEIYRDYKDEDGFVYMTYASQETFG
Sequence of GABARAP (O95166 1-116): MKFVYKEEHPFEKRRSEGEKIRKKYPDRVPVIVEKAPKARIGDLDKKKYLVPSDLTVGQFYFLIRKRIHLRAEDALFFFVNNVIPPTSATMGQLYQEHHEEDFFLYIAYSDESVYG

Regarding `O=C1CC(c2ccc(Cl)c(Cl)c2)CC(=O)C1=CNCCN1CCNCC1` (stereo not shown) [compound 7], the “compound titration LC3C (displacement curve, FP signal)” value on LC3C (setting [1]) was 88.4 and 94.8; on LC3C (setting [2]), 93.8; at LC3C (setting [3]), 97.2 and 97.8; on LC3C (log10 concentration [M] -5), 97 and 99.8; on LC3C (setting [4]), 96.8 and 97.6; on LC3C (setting [5]), 92.2 and 91.4. For the same compound, the “compound titration LC3C (displacement curve, FP signal)” value at LC3C (setting [6]) is 97.6 and 94.6; on LC3C (setting [7]) it was 97.4 and 96.8; at LC3C (setting [8]) it was 96.2 and 101.4; at LC3C (setting [9]), 95.4 and 95.2; at LC3C (setting [10]), 93.8 and 99. Also, the “compound titration GABARAPL1 (displacement curve, FP signal)” value is 88.2857 and 89.4286 on GABARAPL1 (setting [1]); 92.7143 and 96.4286 on GABARAPL1 (setting [2]); 99.5714 and 100.571 on GABARAPL1 (setting [3]); 97.5714 and 100.286 on GABARAPL1 (log10 concentration [M] -5). The “compound titration LC3A (displacement curve, FP signal)” value is 92.1053 and 96.0526 at LC3A (setting [1]); 100.526 and 101.053 at LC3A (setting [2]); 103.684 and 106.579 at LC3A (setting [3]); 107.368 and 103.684 on LC3A (log10 concentration [M] -5); 103.421 and 105 on LC3A (setting [4]); 102.105 and 100 on LC3A (setting [5]). For the same compound, the “compound titration LC3A (displacement curve, FP signal)” value is 101.842 and 98.6842 at LC3A (setting [6]); 102.632 and 100.789 on LC3A (setting [7]); 107.368 and 100.526 on LC3A (setting [8]); 97.6316 and 93.4211 on LC3A (setting [9]); 105.526 and 95.7895 on LC3A (setting [10]). For the same compound, the “covalent labelling (mass shift, ESI MS)” value with all LC3/GABARAPs was “successfully modified”. The “compound titration GABARAP (displacement curve, FP signal)” value on GABARAP (setting [1]) is 86.8966 and 88.6207; at GABARAP (setting [2]), 89.3103 and 93.4483; on GABARAP (setting [3]), 97.2414 and 98.6207; on GABARAP (log10 concentration [M] -5), 96.3793 and 100.517; on GABARAP (setting [4]), 98.6207 and 102.759; on GABARAP (setting [5]), 91.5517 and 93.2759. Also, the “compound titration GABARAP (displacement curve, FP signal)” value at GABARAP (setting [6]) was 93.6207 and 99.4828; on GABARAP (setting [7]), 97.069 and 100.517; at GABARAP (setting [8]), 99.8276 and 99.4828; at GABARAP (setting [9]), 94.8276 and 99.4828; on GABARAP (setting [10]), 98.1034 and 100.172.
For the compound `NCCCOCCOCCOCCCNC(=O)COc1c(Br)cc(C=C2C(=O)Nc3ccc(I)cc32)cc1Br` [compound 18, N-(3-(2-(2-(3-aminopropoxy)ethoxy)ethoxy)propyl)−2-(2,6-dibromo-4-((5-iodo-2-oxoindolin-3-ylidene)methyl)phenoxy)acetamide], the “enrichment / pulldown of LC3/GABARAP by affinity matrix” value in the experiment on LC3/GABARAP is “did not enrich”.
With `CC(C)C[C@H](NC(=O)[C@H](Cc1c[nH]cn1)NC(=O)[C@@H](NC(=O)[C@H](Cc1c[nH]c2ccccc12)NC(=O)[C@H](CC(=O)O)NC(=O)[C@H](CC(=O)O)NC(=O)[C@H](CC(=O)O)NC(=O)CNC(=O)CNC(=O)[C@H](CO)NC(=O)[C@H](CO)NC(=O)[C@H](CC(N)=O)NC(=O)[C@H](CC(=O)O)NC(=O)[C@@H](N)CO)[C@@H](C)O)C(=O)N[C@@H](CO)C(=O)N[C@@H](CO)C(=O)N[C@@H](CCCCN)C(=O)O` [p62-LIR], the “ΔTmB, °C difference to the DMSO control” value with LC3/GABARAPs is “up to 4 °C”.

The record behind these values is article PMC11589570, “Critical assessment of LC3/GABARAP ligands used for degrader development and ligandability of LC3/GABARAP binding pockets” (Nature Communications, 2024).
